Laboratory results published in PubChem BioAssay AID1508624 (National Center for Advancing Translational Sciences (NCATS), 2021).
Hit rate of the full screen: of about 48,000 compounds, about 120 (0.25%) were called active. Another 4% or so got no clear call; they are omitted. Calls follow the shape of the dose curve; as a rule, active = well fitted activation curve with a large enough effect; inconclusive = small, poorly fitted or top-dose-only effect, or another doubt; inactive = no such curve, though single readings can be large or run the other way. The list shows a part of the results.

experiment: Primary qHTS for Identification of Small Molecule Activators of Huntingtin-Antisense Promoter Activity; settings: HEK293 HTT-AS promoter firefly luciferase reporter, 24 h; series mostly up to 57.5 µM; activity change, positive = activation: at the top concentration; also: nearly all actives have a fitted effect of over 55% in size
Summary of the method: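 Luminescence was read after Dual-Glo reagent and a 10 min room-temperature incubation. Values were normalized to vehicle (0% activity) and zero RLU (-100% activity). Reporter HEK293 cells had been exposed to compounds (up to 57.5 uM final) for 24 h.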

Activity change, positive = activation, inactive:
Cc1ccc(CSc2nnc3[nH]c(=O)cc(-c4ccccc4)n23)cc1 -1.23%
O=C(CCC1N=C2c3ccccc3N=C(SCc3ccc(Cl)cc3)N2C1=O)N1CCN(c2ccccc2)CC1 (configuration not stated) -0.922%
COc1ccc(N2CCN(CCCNC(=O)Nc3ccccc3)CC2)cc1 0.91%
COC(=O)c1sccc1S(=O)(=O)N(CC(=O)NCc1ccc(C)cc1)c1ccc(C)cc1 -17.9%
Cc1ccccc1-n1c(Cn2nc(-c3cccc(O)c3)c3c(N)ncnc32)nc2cccc(C)c2c1=O -42%
Fc1ccc(-c2nc(Nc3cccc(C(F)(F)F)c3)nc3c2COc2ccccc2-3)cc1 -14.5%
COc1cc(Nc2nc3ccccc3nc2NS(=O)(=O)c2ccc(NC(=O)c3ccc(C)c(OC)c3)cc2)cc(OC)c1 -26.5%
CCn1cc(C(=O)NCc2ccc(Cl)cc2)c(=O)c2cc(S(=O)(=O)N(C)C3CCCCC3)ccc21 -29%
CCN(C(=O)Cn1c(=O)n(-c2ccccc2)c(=O)c2ccc(C(=O)NCc3ccc4c(c3)OCO4)cc21)c1cccc(C)c1 -11.1%
Cc1c(Cl)cccc1NS(=O)(=O)c1ccc(-c2cnc(C3CC3)o2)cc1 -42.1%
Cc1cc(C)cc(OCC(=O)Nc2c(C(=O)c3ccccc3)oc3ccccc23)c1 -4.18%
O=C(CCn1c(=O)c2cccn2c2cccnc21)Nc1ccccc1C(F)(F)F -7.86%
CCC(=O)N1c2ccccc2CC1C(=O)NCc1cc(OC)ccc1OC (configuration not stated) -2.89%
CC(C)c1ccc(NC(=O)c2cc(S(=O)(=O)N(C)C3CCCCC3)ccc2F)cc1 -24.1%
CCCCn1cnc2cc(NCc3ccc(OCC)cc3)ccc21 3.51%
CCOc1ccc(NC(=O)c2cc(S(=O)(=O)N3CCc4ccccc43)ccc2F)cc1 -36.1%
CCCCCCCCCCCCSCCOCCO -6.31%
Cc1ccc2c(=O)cc(C(=O)Nc3ccc(S(=O)(=O)Nc4onc(C)c4C)cc3)oc2c1C -2.23%
O=C(CSc1oc(-c2ccccc2)nc1S(=O)(=O)c1ccc(Cl)cc1)c1ccccc1 -6.84%
O=C(CC1C(=O)N(c2ccc(F)cc2)C(=O)N1Cc1ccc2c(c1)OCO2)Nc1ccc(Cl)cc1 (configuration not stated) -10.9%
Cc1ccc(-n2cc(C(=O)Oc3ccc(F)cc3)c3ccccc3c2=O)cc1 -19.3%
Cc1[nH]c(C=C2C(=O)Nc3ccc(S(=O)(=O)N(C)c4cccc(Cl)c4)cc32)c(C)c1C(=O)N1CCN(C)CC1 -14.9%
Cc1cc(C)nc(-n2nc(C)c3c2N(Cc2ccccc2)C(=O)CC3c2ccc(Cl)cc2)n1 (configuration not stated) -30.8%
NC(=O)c1c(NC(=O)CS(=O)(=O)c2ccc(Cl)cc2)sc2c1CCCCC2 -13.1%
Cc1ccc(Nc2c(-c3ccc(Br)o3)nc3ccccn23)cc1 -6.45%
COc1ccc(S(=O)(=O)NCc2nc3nc(C)cc(C)n3n2)cc1 -6.85%
Cc1ccc(Cl)cc1N1CCN(C(=O)Cn2ncc3c4ccccc4n(C)c3c2=O)CC1 -8.8%
CCC(=O)Oc1c(Sc2ccc(Cl)cc2)c(C)nn1-c1ccccc1 -28.8%
Cc1ccc(-c2nc(CS(=O)(=O)CC(=O)Nc3ccc(Br)cc3F)c(C)o2)cc1 -7.49%
O=C(NCCCN1CCN(c2cccc(Cl)c2)CC1)c1sc2ncccc2c1-n1cccc1 -26.4%
Cc1cc(Cl)ccc1NS(=O)(=O)c1c(C(=O)N2CCC(C)CC2)c(C)n(C)c1C -26.8%
CC1CCCN(c2nc3c(-c4ccc(Cl)cc4)nnn3c3ccccc23)C1 (configuration not stated) -6.52%
Cc1cc(C=c2sc3nc4ccccc4n3c2=O)c(C)n1-c1ccccc1 -83.5%
Cc1ccc(-c2csc(-c3cc4c([nH]c3=O)CC(c3ccccc3)CC4=O)n2)cc1 (configuration not stated) -39.4%
COc1ccc2oc(=O)c(-c3nnc(-c4ccc(C)cc4)o3)cc2c1 -19.4%
CCN(CC)S(=O)(=O)c1ccc2c(c1)N(CC(=O)NCc1ccccc1)C(=O)C1CCCCN21 (configuration not stated) -12.8%
Cc1cc2c(cc1S(=O)(=O)Nc1ccc(OC(F)(F)F)cc1)OCC(=O)N2 -36.8%
O=C(CCC(=O)c1ccc(F)cc1)Nc1ccc(Cl)cc1 -10.1%
CCn1cc(S(=O)(=O)c2cccc(C)c2)c(=O)c2cc(F)c(N3CCCC(C)C3)cc21 (configuration not stated) -19.6%
O=C(c1ccc2c(c1)N(Cc1ccccc1F)C(=O)c1ccccc1S2(=O)=O)N1CCN(c2ccccn2)CC1 -35.4%
CCOc1ccc(CNC(=O)C2CCCCN2S(=O)(=O)c2ccc(F)cc2)cc1OC (configuration not stated) -8.58%
COc1ccc(-c2nc3c(c(SC)n2)Cc2c(CO)cnc(C)c2O3)cc1 -4.33%
CCn1c(=O)c2cc(C(=O)NCCCN3CCN(C)CC3)sc2c2ccccc21 3.37%
O=C(CSc1n[nH]c(-c2ccccc2Cl)n1)NCc1ccc(F)cc1 -19.6%
CCSc1nc2n(n1)C(c1ccc(Cl)cc1Cl)C(C(=O)Nc1ccccc1C)=C(C)N2 (configuration not stated) -16.8%
CCCCOc1ccc(C(=O)N(Cc2ccc(N(C)C)cc2)Cc2ccco2)cc1 -29.8%
CC(C)(C)c1ccc(-c2nc(NC(=O)CSc3ncnc4sc5c(c34)CCCC5)ns2)cc1 5.69%
Cc1ccc(-n2ncc3c(NCc4ccccc4)ncnc32)cc1Cl 0.201%
CCc1ccc(NC(=O)CSc2nccn2-c2ccc(F)cc2)cc1 -9.26%
COc1ccc(N2CC(NC(=O)/C=C\c3ccc4c(c3)OCO4)CC2=O)cc1OC (configuration not stated) -13.2%
COc1ccc(NC(=O)CN(C)S(=O)(=O)c2ccc3c(c2)CCCN3C(C)=O)cc1 -15.9%
O=C(NCCc1csc(-c2cccnc2)n1)c1cccc(Cl)c1 -19.3%
Cc1ccc2ncc(C(=O)c3ccc(C)c(C)c3)c(S(=O)(=O)c3ccc(F)cc3)c2c1 -45.2%
Cc1c(C)n(CCN(C)C)c2ccc(C(=O)OCCN(C)C)cc12 -20.7%
CCOc1ccc(CC(=O)NCCc2sc3nc(-c4ccc(F)cc4)nn3c2C)cc1 -7.62%
Cc1ccccc1Cn1c(SCc2ccc(C(=O)NC3CCCCC3)cc2)nc2ccncc21 -10.4%
Cc1nc(SCc2cccc(Cl)c2)nc2c1CCCC2 6.07% [at 11.5 µM, percent change from vehicle, -100% = no light]
CC(C)N(Cc1nc(-c2ccc(Cl)cc2)no1)C(=O)c1ccc(C(C)(C)C)cc1 -17.1%
CC1=C(c2ccc(Cl)cc2)S(=O)(=O)N=C1N1CCN(c2cccc(C)c2C)CC1 -14.8%
COc1cccc(CN2C(=O)c3ccccc3Sc3ccc(C(=O)OCc4ccco4)cc32)c1 -3.86%
Cc1cccc(NC(=O)CSc2nc3ccc(NC(=O)c4ccccc4)cc3s2)c1 -17.6%
CCOc1ccc(-c2cc3nc(C4CCN(C(=O)OC(C)(C)C)CC4)c(C(=O)Nc4cccc(CC)c4)cn3n2)cc1 10.3%
CC(=O)N1c2ccc(S(=O)(=O)N3CCCCCC3)cc2CC1C(=O)NCc1cccc(C)c1 (configuration not stated) 8.74%
COc1cc(NC(=O)Cn2c(=O)cc(C)c3c(C)nn(-c4ccc(C)cc4)c32)cc(OC)c1 -13.5%
Cc1ccc(CNc2nnc(C)c3nnn(Cc4ccc(F)cc4)c23)cc1 11%
CCCCOc1ccc(C(=O)Nc2ccc(-c3cc4ccccc4oc3=O)cc2)cc1 -46.7%
CC(C)(C)OC(=O)N1CCC(c2c(C(=O)NCCN3CCc4ccccc4C3)cnn2-c2ccc(F)cc2)CC1 -18.8%
CC(C)c1ccc(OCC(=O)NCCS(=O)(=O)N2CCN(c3ccc(F)cc3)CC2)cc1 6.3%
Cc1c(Cl)cccc1NC(=O)c1ccc2c(c1)CCCN2S(C)(=O)=O 11.9%
CCn1c(=O)cc(SCC(=O)NCc2cccc(Cl)c2)c2ccccc21 -34.8%
COc1ccc(Cn2c(C(=O)O)c(CNC3CCCC3)c3ccc(OC)cc32)cc1 -24%
COc1ccccc1C(=O)N1c2ncnn2C2(CCCCC2)[C@@H]2CCCC[C@@H]21 -25%
CCOC(=O)c1ccc(NC(=O)C(CC)Sc2nc3ccncc3[nH]2)cc1 (configuration not stated) -14.9%
CCN1C(=O)c2ccccc2Sc2ccc(NC(=O)N3CCN(c4cc(C)ccc4C)CC3)cc21 -21%
CSc1nc(Nc2ccc(F)cc2)cc(-c2ccccc2)n1 -31.3%
Nc1ncnc2c1c(-c1cnc3[nH]ccc3c1)nn2C1CCCC1 -37.7%
CCOc1ccc(-c2nn(-c3ccccc3)cc2C2NC(=O)NC(C)=C2C(=O)OC(C)C)cc1 (configuration not stated) -20%
CCc1ccccc1NC(=O)Cn1cc(S(=O)(=O)N2CCCC2)c(S(=O)(=O)N2CCCC2)c1 -4.41%
O=C(c1ccco1)N(Cc1cccnc1)c1nc2c(F)cc(F)cc2s1 -16.6%
COc1ccc2cc1Oc1ccc(cc1)C[C@H]1c3cc(c(OC)cc3CCN1C)Oc1c(OC)c(OC)cc3c1[C@H](C2)N(C)CC3 -77%
C[C@]12CC[C@@H]3c4ccc(O)cc4C[C@@H](CCCCCCCCCS(=O)CCCC(F)(F)C(F)(F)F)[C@H]3[C@@H]1CC[C@@H]2O (some centres not stated) -17.6%
COc1ccccc1NC(=O)CSc1nncn2c1cc1sccc12 -10.9%
Cc1ccccc1CNC(=O)c1ccc2nc(SCc3ccc(F)cc3)n(C)c2c1 -26.2%
CCOCCCNC(=O)C(c1ccccc1)N(Cc1ccc2c(c1)OCO2)C(=O)c1ccc(NC(C)=O)cc1 (configuration not stated) -3.63%
Cc1ccccc1CN1C(=O)c2ccccc2S(=O)c2ccc(C(=O)NCc3ccc(Cl)cc3)cc21 (configuration not stated) -12.5%
CCC(=O)C1=C(c2ccc(F)cc2)N(C(=O)CC)n2cnnc2S1 -8.25%
CCCOc1ccc(-c2cccc(NS(=O)(=O)c3ccccc3)c2)nn1 -27.3%
Cc1ccc2cccc(NC(=O)c3ccc(OC(C)C)cc3)c2n1 -16.5%
CCc1ccccc1NC(=O)CN(c1ccccc1)S(=O)(=O)c1ccsc1C(=O)OC -29.3%
O=C(NCc1ccc2c(c1)OCO2)c1ccc2c(c1)N(Cc1ccccc1F)C(=O)c1ccccc1S2 -11.9%
COc1ccccc1CNC(=O)CC(c1ccc(C)cc1)N1Cc2ccccc2C1=O (configuration not stated) -24%
COc1ccc(CCNC(=O)CCS(=O)(=O)c2cc(Br)cc3c2N(C(C)=O)CC3)cc1OC -17.5%
